# Laboratory results taken from PubChem BioAssay AID662 (National Center for Advancing Translational Sciences (NCATS), 2007).
# “And” between values parts separate entries of the source, which are not always exact repeats. Equal values may be shown once. Out of some 71,000 compounds screened, about 1,800 (2.5%) were called active. Inconclusive results, whose numbers are uncertain, are shown with a selection of clear calls. The call rests on the fitted dose curve; in most records, active means well fitted activation curve with a large enough effect in the signal ratio, with a control signal flat (not every such curve was filed as active); inconclusive means small, poorly fitted or top-dose-only effect, or effect the other way, or a change in a side signal; inactive means flat fitted curve, though single readings scatter; the % refers to the signal ratio. Potencies beside an inconclusive call are fits to weak or partial responses and may not hold up.
# Experiment: Cell signaling CRE-BLA (Fsk stim); on activity change, negative = inhibition: % of control where 0% means no effect
# Conditions: CHO CRE-bla reporter (cAMP response element driving beta-lactamase), forskolin EC10, beta-lactamase ratio; activity change, negative = inhibition: at 38.2 µM (top of the series) unless noted
# Summary of the method: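 The 460nm/530nm emission ratio after CCF4 loading defined %Activity, from which AC50 values were obtained. CRE-bla CHO cells received compound dilution series together with an EC10 level of NKH 477 for 3 hours at 37 degrees Celsius.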
# Potency means the concentration at half of the fitted maximal effect; tags describe the fitted curve by direction and shape.
Structure (SMILES),"activity change, negative = inhibition",Potency
C[C@H]1C[C@H](C)C(=O)[C@@H]([C@H](O)CC2CC(=O)NC(=O)C2)C1,inconclusive: -15% and inconclusive: -15.7%,
C=C(Cl)Cl,inactive: -5.67%,
C[N+]1=Cc2cc3c(cc2CC1)OCO3,,"inconclusive: 25.1 µM [rising, partial curve]"
C=CCN1C[C@H](C)N([C@H](c2ccc(C(=O)N(CC)CC)cc2)c2cccc(O)c2)C[C@H]1C,,"inconclusive: 15.8 µM [falling, partial curve, poor fit]"
O=c1c2ccccc2nc(-c2ccccc2)n1-n1cccc1,inactive: 11.9%,
CN1CCC(N2CC3CC(C2)c2cccc(=O)n2C3)CC1 (stereo unspecified),inconclusive: 2%,
CCCCCCC[n+]1ccc(-c2cc[n+](CCCCCCC)cc2)cc1,inactive: 2.82%,
CC(=O)Nc1ccccc1OC(=O)N(C)C,inconclusive: -25.3%,
Cc1cccnc1NC1=NCC(C)S1 (stereo unspecified),inconclusive: 5.62%,
CCCCn1c(NC(=O)c2ccco2)c(C(=O)OCC)c2nc3ccccc3nc21,,"inconclusive: 10 µM [rising, partial curve]"
COc1ccc2c(c1)CC1(CN2C)C(=O)NC(=O)N(CCc2ccccc2)C1=O (stereo unspecified),,"inconclusive: 3.98 µM [rising, single point]"
C=C(C)[C@@H]1CN[C@H](C(=O)O)[C@H]1CC(=O)O,inactive: -3.87%,
CCCN1CC[C@@H]2c3cc(O)ccc3CC[C@H]21,inactive: -2.84%,
Fc1ccccc1N1CCN(Cc2ccc3c(c2)OCO3)CC1,inconclusive: -26.3% [at 7.6 µM],
O=C(c1cc(-c2cccnc2)nc2ccccc12)N1CCC2(CC1)OCCO2,inconclusive: 16%,
C[C@H](N)[C@H](O)c1ccc(O)c(O)c1,inactive,
COC(=O)c1ccccc1C(=O)OC,inactive: -3.64%,
O=C(COc1ccccc1)N1CCN(CC2CC3C=CC2C3)CC1 (stereo unspecified),inconclusive: -1.82%,
CCN(CC)CCO[C@H]1CC[C@@]2(C)C(=CC[C@@H]3[C@H]2CC[C@]2(C)C(=O)CC[C@H]32)C1,inconclusive: -7.45%,
CC1CN(O)C2CCc3nonc3C12O (stereo unspecified),inconclusive: 5.05%,
Cc1ccc(Cn2nnnc2CN2CCC(n3nnc4cc(C(F)(F)F)ccc43)CC2)cc1,inconclusive: 17.2%,

Structure (SMILES),"activity change, negative = inhibition",Potency
CCCCn1c(O)c(C(C)=NC(C)c2ccccc2)c(=O)[nH]c1=O (stereo unspecified),,"inconclusive: 10 µM [rising, partial curve, poor fit]"
Cn1cc(C(=O)N2CCC3(CC2)OCCO3)c2c3ccccc3n(C)c2c1=O,inconclusive: 10.4%,
ClC1=C(Cl)C2(Cl)C3C(Cl)C(Cl)CC3C1(Cl)C2(Cl)Cl (stereo unspecified),,"inconclusive: 2 µM [rising, partial curve]"
CCOC(=O)c1c(-c2ccc(OC)cc2)oc2ccc(OC(=O)N(C)C)cc12,,"inconclusive: 7.94 µM [rising, partial curve]"
CC1CN=C(Nc2cccc3ccccc23)S1 (stereo unspecified),inconclusive: -18.1%,
O=C(c1ccc2nc3ccc(Cl)cc3c(=O)n2c1)N1CCC2(CC1)OCCO2,,"inconclusive: 12.6 µM [rising, partial curve]"
C/C(O)=C(/C#N)C(=O)Nc1cc(Br)ccc1Br,inconclusive: -18.8%,
O=C(Oc1ccccc1)N1CCC[C@@]2(CCN(Cc3cc(C(F)(F)F)cc(C(F)(F)F)c3)C2)C1,inconclusive: -2.24%,
N#CC1=C(N)Oc2c(c(=O)oc3ccccc23)C1c1ccc(OC(=O)N2CCOCC2)cc1 (stereo unspecified),inconclusive: 29.6%,
O=[N+]([O-])c1cc(O)c(O)c([N+](=O)[O-])c1,inconclusive: -16%,
CCC(C)NC(=O)c1c(N)n(Cc2ccc3c(c2)OCO3)c2nc3ccccc3nc12 (stereo unspecified),,"inconclusive: 3.16 µM [rising, full curve]"
O=[N+]([O-])O[C@H]1CO[C@H]2[C@H]1OC[C@@H]2O[N+](=O)[O-],inactive: 1.43% [at 17.1 µM],
CC(C)OCCCNC(=O)c1c(N)n(CC2CCCO2)c2nc3ccccc3nc12 (stereo unspecified),,"inconclusive: 10 µM [rising, partial curve]"
O=C(O)Cc1cccnc1C(=O)O,inconclusive: -19.8%,
O=C(Cc1ccccc1)OC(COCc1ccccc1)CN1CCOCC1 (stereo unspecified),inactive: -8.46%,
CNC(=O)O/N=C/C(C)(C)SC,inactive: -4.89%,
Cc1cc(N)n(C2CCN(C)CC2)n1,inactive: 0.546%,
CCCC1(CCC)C(=O)NC(=NCc2ccccc2)NC1=O,,"inconclusive: 25.1 µM [falling, single point]"
C=CCn1c(O)c(C(CC)=NCc2cc(OC)cc(OC)c2)c(=O)[nH]c1=O,,active: 10 µM
Fc1ccc(NC2=NCCS2)cc1Cl,,"inconclusive: 12.6 µM [rising, partial curve]"
